Values of other authors, collected in US20080160019A1, “SEQUENTIAL COMBINATION THERAPY” (DYAX CORP., priority 2006, published 2008).

Molecular target: T1, Tie1 (Homo sapiens, UniProt P35590)
T1 sequence (P35590 22-1138): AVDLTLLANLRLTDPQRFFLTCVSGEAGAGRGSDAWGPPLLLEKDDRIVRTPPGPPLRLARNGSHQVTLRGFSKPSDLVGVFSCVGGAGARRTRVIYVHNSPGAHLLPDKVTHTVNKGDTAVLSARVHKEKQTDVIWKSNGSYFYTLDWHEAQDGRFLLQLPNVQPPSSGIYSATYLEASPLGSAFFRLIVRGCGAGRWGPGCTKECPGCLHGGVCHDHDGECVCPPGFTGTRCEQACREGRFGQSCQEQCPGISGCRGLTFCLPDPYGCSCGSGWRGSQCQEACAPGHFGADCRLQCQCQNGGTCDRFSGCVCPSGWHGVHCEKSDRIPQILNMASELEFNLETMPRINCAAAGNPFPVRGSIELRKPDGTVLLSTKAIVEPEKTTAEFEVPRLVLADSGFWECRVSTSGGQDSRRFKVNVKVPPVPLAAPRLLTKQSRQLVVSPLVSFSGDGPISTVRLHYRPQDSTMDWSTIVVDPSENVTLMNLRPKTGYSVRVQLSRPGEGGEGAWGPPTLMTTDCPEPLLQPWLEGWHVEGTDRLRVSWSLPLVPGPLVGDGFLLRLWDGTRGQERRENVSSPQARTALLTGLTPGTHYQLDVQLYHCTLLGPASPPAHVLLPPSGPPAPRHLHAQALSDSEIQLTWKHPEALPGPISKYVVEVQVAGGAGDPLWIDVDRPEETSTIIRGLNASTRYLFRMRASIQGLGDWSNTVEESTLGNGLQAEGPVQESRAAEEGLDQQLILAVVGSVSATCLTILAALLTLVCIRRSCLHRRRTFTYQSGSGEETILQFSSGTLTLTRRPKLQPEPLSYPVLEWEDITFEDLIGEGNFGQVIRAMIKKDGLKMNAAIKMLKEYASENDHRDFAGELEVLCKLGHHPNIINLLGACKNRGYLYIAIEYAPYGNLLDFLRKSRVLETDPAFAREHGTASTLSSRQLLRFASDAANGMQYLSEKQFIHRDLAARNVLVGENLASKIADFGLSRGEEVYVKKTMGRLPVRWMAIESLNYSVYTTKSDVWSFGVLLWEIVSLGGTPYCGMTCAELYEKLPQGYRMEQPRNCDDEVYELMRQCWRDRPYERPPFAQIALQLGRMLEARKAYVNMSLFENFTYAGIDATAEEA

Tie1 tyrosine phosphorylation: induce
Tie complex formation: induce
down modulation of Tie1 from the cell surface: induce
Tie1/Tie2 heterodimers on the surface of cells expressing Tie1 and Tie2 (e.g., endothelial cells): down-modulation
B1: DX-2220: full length, IgG1, germlined human anti-Tie1 antibody E3b (SEQ ID NO:6, 7) (protein, listed as Homo sapiens)
light: DIQMTQSPSSLSASVGDRVTITCRASQGIGHYLAWYQQKPGKVPKLLIYTASTLQSGVPSRFSGSGSGTDFTLTISSLQPEDVATYYCQQFNSYPHTFGQGTRLEIKRTVAAPSVFIFPPSDEQLKSGTASVVCLLNNFYPREAKVQWKVDNALQSGNSQESVTEQDSKDSTYSLSSTLTLSKADYEKHKVYACEVTHQGLSSPVTKSFNRGEC
heavy: EVQLLESGGGLVQPGGSLRLSCAASGFTFSMYGMVWVRQAPGKGLEWVSVISPSGGNTGYADSVKGRFTISRDNSKNTLYLQMNSLRAEDTAVYYCARAPRGYSYGYYYWGQGTLVTVSS[left out - human IgG1 constant region]
